The labels stand for the following.
B1: CPEB3 Ribozyme (parent)
chain: UAACAGGGGGCCACAGCAGAAGCGUUCACGUCGCAGCCCCUGUCAGAUUCUGGUGAAUCUGCGAAUUCUGCUGUAUAUCUC

The source gives no read counts; variants with many changes may rest on few reads.

Variants of B1 are the subject of the series. Description: self-cleavage, relative activity (ratio to wild type); higher = more cleavage; in vitro, sequencing. The procedure, abridged: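 Libraries of CPEB3 self-cleaving ribozyme mutants came from rounds of error-prone PCR and carried barcodes, which DNA sequencing matched to variants. In vitro transcription used T7 RNA polymerase at 37°C for 5 hours, with a further 15 min in DNase I before EDTA stopped the reaction; the ribozymes cleaved during both steps. The RNA was reverse transcribed with template switching and sequenced on Illumina. Relative activity is the cleaved/total read fraction of a variant divided by that of the unmutated ribozyme, averaged over three batches with at least 5 reads.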
As for UAACAGGGGGCCACAGCAGAGGCGUUCACGUCGCAGCCCAUGCCAGAUACUGGUGACUCUGCGAAUUCUGCUGAAUAUCUC [A21G C40A U43C U49A A57C U74A], the self-cleavage was 0.05.

Turning to UAACAGGGGGCCACAGCAGAGGCGUUCACGUCGCAGCCCAUGUCCGAUUCUGGUGAAUCUGCGAAUUCUGCUGUAUAUCUC [A21G C40A A45C], the self-cleavage is 0.12.

Turning to UAACAGGGGGCCACAGCAGAGGCGUUCACGUCGCAGCCCCUGUCAGAUUUUGGUGGAUCUGCGAAUUCUGCUGUAUAUCAC [A21G C50U A56G U80A], the self-cleavage is 0.27.

As to UAACAGGGGGCCACAGCAGAGGCGUUCACGUUGCGGCCCCUGUCAGAUUCUGGUGAAUCUGCGAAUUCUGCUGUAUAUCUC [A21G C32U A35G], the self-cleavage is 0.08.

For UAACAGGGGGCCACAGCAGAGGCGUUCACGUCGUAGCCCCUGUCAGAUUCUGGUGAAUCUGCGUAUUCUGCUGUAUAACUC [A21G C34U A64U U78A], the self-cleavage was 0.04.

Turning to UAACAGGGGGCCACAGCAGAGGCGUUCACGUCGGAGCCCCUGUCAGAUCCUGGUGAAUCUGCGAACUCUGCAGUAUAUCUC [A21G C34G U49C U66C U72A], the self-cleavage amounted to 0.07.

In the case of UAACAGGGGGCCACAGCAGAGACGUUCACGUCGCAGCCCCAGUCAGAUUCUGGUGAAUCUGCGAACUCUGCUGUAUAUCUC [A21G G22A U41A U66C], the self-cleavage worked out at 0.06.

For UAACAGGGGGCCACAGCAGAGGCGUUCACGUCGCAGCUCCUGUCUGAUUCUGGUGAAUCUGCGAAUUCUGCUGUAUAUCUC [A21G C38U A45U], the self-cleavage is 0.28.

As for UAACAGGGGGCCACAGCAGAGGCGUUCACGUCGCAGCCCCUGUCAGAUUCUGGUGAAUUUGCGAAUUCUGCAGCAUAUCUC [A21G C59U U72A U74C], the self-cleavage is 0.38.

Turning to UAACAGGGGGCCACAGCAGAGGCGUUCACGUCGCAGCCCCUGUUAGAUUCUGGUGAAUCUGUGAAUUCUGCAGUAUAUCUC [A21G C44U C62U U72A], the self-cleavage amounted to 0.04.

Consider UAACAGGGGGCCACAGCAGAGGCAUUCACGUCGCAGCCCCUGCCAGAAUCUGGUGAAUCUGCGAAUUCUGCUGUAUAUCUC [A21G G24A U43C U48A], for which the self-cleavage was determined as 0.19.

UAACAGGGGGCCACAGCAGAGGCGUUCACGUCGUUGCCCCUGUCAGAUUCUGGUGAAUCUGCGCAUUCUGCUGUAUAUCUC [A21G C34U A35U A64C]: the self-cleavage was determined as 0.05.

Take UAACAGGGGGCCACAGCAGAGGCGUUCACGUCGUAGCCCCUGCCAGGUUCUGGUGAAUCUGCGAAUUCUGCUGUAUAUCUC [A21G C34U U43C A47G]: the self-cleavage was 0.14.

With UAACAGGGGGCCACAGCAGAGACGUUCACGUCGCGGCCCCUGCCAGAUUCUGGUGGAUCUGCGAAUUCUGCUGUAUAUCUC [A21G G22A A35G U43C A56G], the self-cleavage worked out at 0.19.

Consider UAACAGGGGGCCACAGCAGAGCCGUUCACGUUGCAGCCCCCGUCUGAUUCUGGUGAAUCUGCAAAUUCUGCUGUAUAUCUC [A21G G22C C32U U41C A45U G63A], for which the self-cleavage amounted to 0.24.

With UAACAGGGGGCCACAGCAGAGACGUUCACGUUGCAGCCCCUGUCAGAUUCUGGUGAAUCUGCGAAUUCUGCUGUAUAUCUC [A21G G22A C32U], the self-cleavage was found to be 0.08.

Regarding UAACAGGGGGCCACAGCAGAGGCGUUCACGUCGUAGCCCCUUCCAGAUUCUGGUGAAUCAGCGAAUUCUGCUGUAUAUCUC [A21G C34U G42U U43C U60A], the self-cleavage amounted to 0.12.

Turning to UAACAGGGGGCCACAGCAGAGGCGUUCACGUCGCAGCCUCUGCCAGAUUCUGGUGAAUCUGCGAAUUCUGCUGUAUAUCUC [A21G C39U U43C], the self-cleavage was found to be 0.06.

On to UAACAGGGGGCCACAGCAGAGGCGUUCACGUCGCAGCACCUGUCAGAUUCUGGUGAAUCUGCGAAUUCUGCCGUAUAGCUC [A21G C38A U72C U78G], for which the self-cleavage stood at 0.09.

In the case of UAACAGGGGGCCACAGCAGAGGCGUUCACGUCGCAGCCCCUGUCAGAUUCUGGUGAAUCUGUGAAUUCUGCUGUAUGUCUC [A21G C62U A77G], the self-cleavage is 0.16.

Regarding UAACAGGGGGCCACAGCAGAGGCAUCCACGUCGCAGCCCCUGUCUGAUUCUGGUGAAUCUGCGAAUUCCGCUGUAUAUCUC [A21G G24A U26C A45U U69C], the self-cleavage was determined as 0.09.

Take UAACAGGGGGCCACAGCAGAGCCGUUCACGUCGCAGCCCCUGCCAGAUUCUGGUGAAUCUGCGAAUUCUGCUGUAUACCUC [A21G G22C U43C U78C]: the self-cleavage turned out to be 0.08.

On to UAACAGGGGGCCACAGCAGAGGCGUUCACGUCGCAGCCCUUGUCAGAUUCUGGUGAAUCCGCGAAUUCUGCUGUAUACCUC [A21G C40U U60C U78C], for which the self-cleavage came to 0.06.

For the variant UAACAGGGGGCCACAGCAGAGGCGUUCACGUCGCAGCCCUUGUCAGAUUCAGGUGAAUCUACGAAUUCUGCUGUAUAUCAC [A21G C40U U51A G61A U80A], the self-cleavage was found to be 0.49.

With UAACAGGGGGCCACAGCAGAGUCGUUCACGUCCCAGCCCCUGUCAGAUUCUGGUCAAUCUGCGAAUUCUGCUGUAUAUCUC [A21G G22U G33C G55C], the self-cleavage is 0.12.

Consider UAACAGGGGGCCACAGCAGAGGCGUUCACGUCGGAGCCCCUGUCAGAUUCUGGUGAAUCUGCGAAUUCUGCUGCAUAUCUC [A21G C34G U74C], for which the self-cleavage was 0.1.

Regarding UAACAGGGGGCCACAGCAGAGGCGUUCACGUCGCAGCCCCUGUUGGAUUCUGGUGAAUCUGCGAAUUCUGCUGUAUAUCUC [A21G C44U A45G], the self-cleavage came to 0.21.

Take UAACAGGGGGCCACAGCAGAGGCGUUCACGUCGCAGCCCCUGUCAGAUUCUGGUGAAUCUGGGAAUUCAGCUGAAUAUCUC [A21G C62G U69A U74A]: the self-cleavage is 0.05.

Consider UAACAGGGGGCCACAGCAGAGGCGUUCACGUCGCAGCCUCUGUCAGUUUCUGGUGAGUCUGUGAAUUCUGCUGUAUAUCUC [A21G C39U A47U A57G C62U], for which the self-cleavage amounted to 0.06.

On to UAACAGGGGGCCACAGCAGAGGCGUUCACGUCGCAGCCGCUGUCAGAUUCUGGUGAAUCCGCGAAUUCUGCUGUAUAUCUC [A21G C39G U60C], for which the self-cleavage turned out to be 0.18.

On to UAACAGGGGGCCACAGCAGAGGCAUCCACGUCGCAGCCCCUGUCAGAUUCUGGUGAAUCUGCGAAUUCUGCUGUAUAUCAC [A21G G24A U26C U80A], for which the self-cleavage worked out at 0.11.

For UAACAGGGGGCCACAGCAGAGGCGUUCACGUCGCAGCCUCUGUCAGAUACUGGUGAAUCUGCGAAUUCUGCUGUAUAUCAC [A21G C39U U49A U80A], the self-cleavage came out at 0.08.

UAACAGGGGGCCACAGCAGAGGCAUUCCCGUCGCAGCCCCUGUCAGAUUCUGGUGAAUCUGCGGAUUCUGCUGUGUAUCUC [A21G G24A A28C A64G A75G]: the self-cleavage amounted to 0.05.

On to UAACAGGGGGCCACAGCAGAGGCGUUCACGUUGCAGCCCCUGUCAGAUUCUGGAGAAUCUGCGAAUUCUGCUGUAUAUCUC [A21G C32U U54A], for which the self-cleavage turned out to be 0.11.

The record behind these values is the RNAGym collection of RNA variant scans (doi:10.1093/nar/gkz1192).
